Measured values as given in ChEMBL document CHEMBL4888484, “Replenishing the malaria drug discovery pipeline: Screening and hit evaluation of the MMV Hit Generation Library 1 (HGL1) against asexual blood stage Plasmodium falciparum ,using a nano luciferase reporter read-out” (2022).
Screen size: about 150,000 compounds; about 540 (0.36%) showed an effect of 50% or more. The list shows a part of the results.

Tested on: Plasmodium falciparum
Assay: Primary screen in NF54 nanoGlo assay, in single point, at 2uM, 72h; a lower Z score goes with more inhibition
Assay type: functional, Erythrocyte
Conditions: timepoint 72 hour

SMILES	% Inhibition	Z score
Cc1cnccc1Cn1ccc(-c2cccc(-c3nccs3)c2)n1	-6%	1.09
Cc1cc(N(C)C)n2nc(CN3CCN(c4ccccc4Cl)CC3)nc2n1	10%	-1.25
COc1cccc(-c2cc(C(F)(F)F)n3nc(C(=O)Nc4cnn(C(C)C)c4)cc3n2)c1	32%	-3.61
Cc1cc(C(=O)N2CC[C@@H](N3CCOCC3)[C@H]2C)nc(C(F)(F)F)n1	-6%	0.81
N#Cc1ccccc1OCc1csc(-c2ccccn2)n1	34%	-4.33
O=C1Nc2ccccc2Nc2nc(-c3cccnc3)ccc21	-9%	1.65
COc1ccc(NC(=O)CN(C)CC(N)=O)c(OC)c1	-4%	0.82
CCn1c(CN2CCC(N3C(=O)O[C@H]4CNC[C@H]43)CC2)nc2cc(F)ccc21	2%	-0.21
Cc1noc(COCC(=O)N2CC[C@H](C)C2)n1	11%	-1.41
Cc1ccc(C2=C[C@@H](c3ccccc3)n3nnnc3N2CC(=O)NC2CCCCC2)cc1	-3%	0.27
O=C(CN1CCCCC1=O)NC[C@H]1CCOC1	-4%	0.63
O=C(Cn1cc(C(=O)c2ccc(F)cc2)nn1)Nc1ccc2c(c1)OCO2	-3%	0.24
CC(C)n1nnnc1Cn1nc(C(F)(F)F)ccc1=O	-10%	1.38
COCCC(=O)N1C[C@H]2CC[C@@H](C1)N(Cc1c(C)noc1C)C2=O	-8%	1.3
O=C(Nc1ccc2ccccc2c1)c1ccncc1	-3%	0.43
CCCCCNC(=O)CNC(=O)c1ccc(Cl)c(Cl)c1	-8%	0.84
CC(=O)N1CCCN(CC(=O)N2CCc3sccc3C2)CC1	-15%	1.58
CCOC(=O)C1CCCN(C(C)C(N)=O)C1 (stereo not drawn)	-3%	0.61
CCn1cnnc1CN(C)Cc1ccc(OC)nc1	-3%	0.65
C[C@@H](CCc1ccccc1)NC(=O)NCCCCS(N)(=O)=O	-17%	2.31
Cc1cc(C)c(C#N)c(N2CCCN(S(=O)(=O)Cc3ccccc3)CC2)n1	-1%	0.14
CC(=O)c1c(N2CCOCC2)nc(=O)n(-c2ccccc2)c1C	-5%	0.73
CCCN1C(=O)[C@@]2(CC(=O)Nc3c2c(C)nn3-c2ncnc3nc[nH]c23)c2ccccc21	3%	-0.31
O=C(Cc1cccc(Cl)c1)Nc1nccn1-c1ccccc1	5%	-0.79
COc1cc2c(cc1OC)CN(C(=O)C[C@@H]1NC(=O)N(c3ccc(C(C)C)cc3)C1=O)CC2	-3%	0.37
CCCOCc1nc(C2(c3ccccc3)CC2)nn1[C@H]1CCS(=O)(=O)C1	-11%	1.04
Cc1noc(-c2nc(-c3ccc4c(c3)OCO4)no2)n1	4%	-0.41

SMILES	% Inhibition	Z score
Cc1cc(-c2cc(S(=O)(=O)NCc3ccc4c(c3)OCO4)c(C)s2)on1	-6%	0.58
Cc1ccccc1NC(=O)Cn1cc(-c2noc(-c3ccccc3)n2)nc1C	-7%	0.95
COc1cccc(C(=O)N2CCN(C(=O)Cc3c(C)n[nH]c3C)CC2)c1	-2%	0.38
Cc1n[nH]c(CN(C)c2nc(CN3CCCCC3)nc3scc(-c4ccccc4)c23)n1	35%	-3.57
CCC(CC)NS(=O)(=O)c1ccc(C)cc1	0%	-0.06
Cc1nnc(COC(=O)c2cc(O)ccc2C(F)(F)F)n1C	-9%	1.52
CC(C1CCCCC1)N1C(=O)NC(CC(F)(F)F)C1=O (stereo not drawn)	-17%	2.32
COC(=O)[C@H](Cc1ccc(OC)cc1)NC(=O)[C@H]1CN(C(C)=O)CCN1C(=O)C1CCCCC1	0%	0.06
CCn1ncc(NC(=O)Cn2ccc3cccc(F)c32)n1	-16%	2.28
CN(Cc1ccc(F)cc1)C(=O)[C@@H]1NCc2ncncc21	-5%	1
Cn1cnnc1CN1CCC[C@H]1C(=O)NCC1CCCCC1	-4%	0.7
Cc1ccc(C(=O)N(C(C)C)C(C)C)c(Cl)c1	12%	-1.53
CCc1nnsc1C(=O)N1CCC(C(N)=O)(c2ccccc2)CC1	2%	-0.3
COCCCNC(=O)[C@@H]1CC2(CCN(S(=O)(=O)Cc3ccccc3)CC2)C(=O)N1C	-11%	1.36
CC(C)N(C)c1cccc(NC(=O)N(C)C2CCC(CO)CC2)c1 (stereo not drawn)	-14%	1.61
CCOc1cccc(OCC#CCNC)c1	-16%	1.7
CCOC(=O)c1ccc(NC(=O)Cn2nc3c(N4CCOCC4)nccn3c2=O)cc1	-1%	0.12
CN(C)[C@H]1CN(C(=O)c2cccc(-c3ccc4c(=O)[nH]ccc4c3)c2)C[C@@H]1O	3%	-0.6
CS(=O)(=O)NC[C@H](O)C1CCCC1	1%	-0.11
Cc1cccc(OCC(=O)N2CCN(S(=O)(=O)c3cc4c(cc3C)NC(=O)CO4)CC2)c1	-8%	0.79
COCCOc1nc(-c2ccco2)n(-c2cccc(NC(=O)Nc3cccc(Cl)c3)c2)n1	-6%	0.84
Cc1cc(C(=O)N2CC[C@H](Cc3cccc(CO)c3)C2)c2c(C)noc2n1	2%	-0.39
COCc1c(C(=O)NCCN2CCOCC2)cnn1-c1ncc2c(n1)-c1ccccc1CCC2	3%	-0.44
Cc1cnccc1NC(=O)CC1CCCCC1	-10%	0.87
Cc1cc(C(=O)N[C@@H](CNC(=O)OC(C)(C)C)C(F)(F)F)ncn1	-11%	1.36
O=C(NCCF)NCC1(Cc2ccc(F)cc2)CC1	2%	-0.39
O=C(c1ccnc(C2CC2)n1)N1C[C@@H]2Oc3c(F)ccc(F)c3O[C@@H]2C1	-9%	0.93
